In the test the test system is primary human hepatic stellate cells (donor 1). Nature of the test: scaled lipid accumulation score (0 = DMSO-like, 1 = nortriptyline-like); higher = stronger HSC inactivation (lipid re-accumulation), active = hit call of the paper. The note with it: 48 h. The protocol:
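Primary lipid accumulation screen in primary human hepatic stellate cell myofibroblasts (donor 1, passage 8) in 384-well plates. 100 nL of library compound was pin-transferred into 30 µL medium in duplicate, and cells were treated for 48 h. The 'Scaled' score combines distance from plate baseline, toxicity and reproducibility penalties, and is normalised to nortriptyline (positive) and DMSO (negative) controls on each plate. A hit is defined as scaled >0.85 or among the top 3 wells per plate.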

Where [1] appears, read: library stock concentration: 3.33 mM.
The mark [2] stands for this setting: library stock concentration: 10 mM.
The mark [3] stands for this setting: library stock concentration: 80 uM.
[4] abbreviates: library stock concentration: 400 uM.
[5] abbreviates: library stock concentration: 2 mM.
The mark [6] stands for this setting: library stock concentration: 1 mM.

SMILES strings stand for the structures. Values joined by “and” are separate entries in the source; they are usually repeats but may differ in a detail not shown here. Equal values may be shown once. Where a name gives a salt, the structure may show the parent alone. Out of some 5,800 compounds screened, about 620 (11%) showed activity.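 The calls were made as follows: active = score above a cut-off or among the top three wells of a plate; in these data no inactive exceeds 0.85.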 The entries are a selection whose mix differs from that of the whole data set. Some results are limits rather than exact numbers.

For the compound `Cn1cnc2cc3c(Nc4cccc(Br)c4)ncnc3cc21`, under setting [1], the “scaled lipid accumulation score” value was inactive: 0.044.
For `C#C[C@]1(O)CC[C@H]2[C@@H]3CCC4=Cc5oncc5CC4(C)[C@H]3CCC21C` (some centres undefined) [Danazol], the “scaled lipid accumulation score” value under setting [2] is active: 0.915.
`CN(C)[C@@H]1C(O)=C(C(N)=O)C(=O)[C@@]2(O)C(O)=C3C(=O)c4c(O)cccc4[C@@](C)(O)[C@H]3[C@H](O)[C@@H]12` [Oxytetracycline hydrochloride]: the “scaled lipid accumulation score” value under setting [2] is inactive: ≤ 0.
Consider `CN(C)[C@@H]1C(O)=C(C(N)=O)C(=O)[C@@]2(O)C(O)=C3C(=O)c4c(O)cccc4[C@@](C)(O)[C@H]3[C@H](O)[C@@H]12` [Oxytetracycline dihydrate], for which the “scaled lipid accumulation score” value was inactive: 0.056.
In the case of `CN(C)[C@@H]1C(O)=C(C(N)=O)C(=O)[C@@]2(O)C(O)=C3C(=O)c4c(O)cccc4[C@@](C)(O)[C@H]3[C@H](O)[C@@H]12` [Oxytetracycline], the “scaled lipid accumulation score” value was inactive: 0.025 (library stock concentration: 4 mM) and inactive: ≤ 0 under setting [2].
For `COc1cc(OC)c(/C=C/S(=O)(=O)Cc2ccc(OC)c(NCC(=O)O)c2)c(OC)c1`, the “scaled lipid accumulation score” value reads like this: under setting [3], inactive: ≤ -0.016; under setting [4], inactive: ≤ -0.016; under setting [5], inactive: 0.096; under setting [1], inactive: 0.068; under setting [2], inactive: 0.138 and inactive: 0.063.
On to `OC(CN1CCN(c2cccc(Cl)c2)CC1)C(c1ccccc1)c1ccccc1` (centres undefined), for which the “scaled lipid accumulation score” value is, setting by setting: under setting [1], inactive: ≤ 0; under setting [2], inactive: ≤ 0 and inactive: 0.084.
Take `O=c1[nH]c(=O)n([C@H]2C[C@H](O)[C@@H](CO)O2)cc1Br` [5-Bromo-2'-deoxyuridine]: under setting [2], the “scaled lipid accumulation score” value is inactive: 0.299.
Same read-out and setting: the result for `CN(C)CCOc1ccc(/C(=C(/CCCl)c2ccccc2)c2ccccc2)cc1.O=C(O)CC(O)(CC(=O)O)C(=O)O` reads active: 0.946.
As to `CCCCC1(COC(=O)CCC(=O)O)C(=O)N(c2ccccc2)N(c2ccccc2)C1=O` [Suxibuzone], the “scaled lipid accumulation score” value is inactive: ≤ 0. For the same compound, the “scaled lipid accumulation score” value under setting [2] was inactive: ≤ 0.
As to `COc1cc(NC(C)CCCN)c2ncccc2c1` (centres undefined) [Primaquine Diphosphate], the “scaled lipid accumulation score” value runs as follows: under setting [1], inactive: 0.027; under setting [2], inactive: 0.152 and inactive: 0.501.
As to `COc1cc(NC(C)CCCN)c2ncccc2c1` (centres undefined) [Primaquine phosphate], where the note is “library stock concentration: 7.7 mM”, the “scaled lipid accumulation score” value is inactive: ≤ 0.
As to `COc1cc(NC(C)CCCN)c2ncccc2c1` (centres undefined) [Primaquine diphosphate], the “scaled lipid accumulation score” value is inactive: ≤ 0. For the same compound, for the setting “library stock concentration: 4.4 mM”, the “scaled lipid accumulation score” value is inactive: 0.035. Under setting [2], the “scaled lipid accumulation score” value was inactive: 0.025.
Regarding `CCCCNc1c(C(=O)OCC)c(C)nc2c1cnn2CC` [Tracazolate], the “scaled lipid accumulation score” value under setting [2] is inactive: 0.143.
On to `CCCCNc1c(C(=O)OCC)c(C)nc2c1cnn2CC` [Tracazolate hydrochloride], for which the “scaled lipid accumulation score” value was inactive: ≤ 0. Further, under setting [2], the “scaled lipid accumulation score” value is inactive: ≤ -0.006.
In the case of `COCCOc1cc2ncnc(Cl)c2cc1OCCOC`, the “scaled lipid accumulation score” value under setting [2] was inactive: ≤ 0.
Turning to `CNCCCC12CCC(c3ccccc31)c1ccccc12.Cl` [Maprotiline hydrochloride], the “scaled lipid accumulation score” value is, setting by setting: (library stock concentration: 6.4 mM) active: 1.05; under setting [2], active: 0.918 and active: 1.23.
`c1ccc(COCCCc2c[nH]cn2)cc1` [Proxyfan Oxalate]: the “scaled lipid accumulation score” value under setting [2] was inactive: ≤ 0.
As for `CC[N+](CC)(CC)CC(=O)Nc1c(C)cccc1C` [Lidocaine N-ethyl bromide quaternary salt], the “scaled lipid accumulation score” value under setting [2] is inactive: 0.159.
In the case of `CC[N+](CC)(CC)CC(=O)Nc1c(C)cccc1C` [QX 314 bromide], the “scaled lipid accumulation score” value under setting [2] is inactive: ≤ 0.
The same measure, in the same setting: with `CC[N+](CC)(CC)CC(=O)Nc1c(C)cccc1C` [QX 314 chloride] the figure was inactive: ≤ -0.001.
On to `COc1cc(-c2ccc(=O)[nH]n2)ccc1OC(F)F` [Zardaverine], for which the “scaled lipid accumulation score” value was inactive: 0.489. Where the note is “library stock concentration: 7.5 mM”, the “scaled lipid accumulation score” value was inactive: 0.206. Also, the “scaled lipid accumulation score” value under setting [2] is inactive: 0.387.
Take `COc1cc(-c2ccc(=O)[nH]n2)ccc1OC(F)F`: the “scaled lipid accumulation score” value under setting [2] was inactive: ≤ 0.
Regarding `Cc1ccc([N+](=O)[O-])cc1S(=O)(=O)N(C)/N=C/c1cnc2ccc(Br)cn12`, the “scaled lipid accumulation score” value under setting [4] is inactive: 0.244; the “scaled lipid accumulation score” value under setting [5] is inactive: 0.129; the “scaled lipid accumulation score” value under setting [1] was inactive: 0.64; the “scaled lipid accumulation score” value under setting [2] was inactive: 0.167 and inactive: ≤ -0.005.
Consider `COc1ccc2nc3n[nH]c(C)c3c(NCCOCCO)c2c1`, for which the “scaled lipid accumulation score” value under setting [3] is inactive: ≤ -0.001; the “scaled lipid accumulation score” value under setting [4] was inactive: ≤ -0.001; the “scaled lipid accumulation score” value under setting [5] is inactive: ≤ -0.001; the “scaled lipid accumulation score” value under setting [1] was inactive: 0.203; the “scaled lipid accumulation score” value under setting [2] was inactive: 0.021.
Turning to `CCOC(=O)c1ccc(N)cc1` [Benzocaine], the “scaled lipid accumulation score” value was inactive: ≤ 0. Moreover, under setting [1], the “scaled lipid accumulation score” value was inactive: ≤ 0. Moreover, under setting [2], the “scaled lipid accumulation score” value was inactive: ≤ -0.001 and inactive: ≤ 0. Where the note is “library stock concentration: 12.1 mM”, the “scaled lipid accumulation score” value was inactive: ≤ -0.001.
As to `CCCCCCCCCCCCCCC(F)C(=O)O` (centres undefined) [2-Fluoropalmitic Acid], under setting [6], the “scaled lipid accumulation score” value was inactive: ≤ 0.
`CCCCCCCCCCCCCCC(F)C(=O)O` (centres undefined) [2-Fluoropalmitic acid]: the “scaled lipid accumulation score” value under setting [6] is inactive: ≤ -0.021.
As for `CCCCCCCCCCCCc1ccc(S(=O)(=O)Nc2nncs2)cc1`, the “scaled lipid accumulation score” value by setting is: under setting [1], inactive: ≤ 0; under setting [2], inactive: 0.218.

For the origin of these results see the supplement of paper PMC9135407.
